According to the supplement of paper PMC8728848:
This is one part of the list.

Key:
Assay in all cases: glycan array binding signal (z-score within array); higher = stronger binding
Settings in all cases: glycan notation: IUPAC condensed, linker removed
Neu5Ac(a2-3)GalNAc = target: Neu5Ac(a2-3)GalNAc
In short: (§1)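 From the Consortium for Functional Glycomics database, 3228 arrays were curated, keeping only those whose protein sequence was available. Binding is given as a within-array Z-score averaged across arrays sharing a protein sequence and across linkers. Negative Z-scores can be read as non-binding.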

[1] = target: Neu5Ac(a2-3)GalNAc(b1-4)GlcNAc
In short: as §1

[2] = target: Neu5Ac(a2-3)[GalNAc(b1-4)]Gal(b1-4)Glc
In short: as §1

[3] = target: Neu5Ac(a2-3)[GalNAc(b1-4)]Gal(b1-4)GlcNAc
In short: as §1

[4] = target: Neu5Ac(a2-3)[GalNAc(b1-4)]Gal(b1-4)GlcNAc(b1-3)GalNAc
In short: as §1

[5] = target: Neu5Ac(a2-3)[Neu5Ac(a2-6)]GalNAc
In short: as §1

Neu5Ac(a2-6)Gal = target: Neu5Ac(a2-6)Gal
In short: as §1

[6] = target: Neu5Ac(a2-6)Gal(b1-3)GlcNAc(b1-3)[Gal(b1-4)GlcNAc(b1-6)]Gal(b1-4)Glc
In short: as §1

Neu5Ac(a2-6)Gal(b1-4)Glc = target: Neu5Ac(a2-6)Gal(b1-4)Glc
In short: as §1

[7] = target: Neu5Ac(a2-6)Gal(b1-4)GlcNAc
In short: as §1

[8] = target: Neu5Ac(a2-6)Gal(b1-4)GlcNAc(b1-2)Man
In short: as §1

[9] = target: Neu5Ac(a2-6)Gal(b1-4)GlcNAc(b1-2)Man(a1-3)Man(b1-4)GlcNAc(b1-4)GlcNAc
In short: as §1

[10] = target: Neu5Ac(a2-6)Gal(b1-4)GlcNAc(b1-2)Man(a1-3)[Gal(b1-4)GlcNAc(b1-2)Man(a1-6)]Man(b1-4)GlcNAc(b1-4)GlcNAc
In short: as §1

[11] = target: Neu5Ac(a2-6)Gal(b1-4)GlcNAc(b1-2)Man(a1-3)[GlcNAc(b1-2)Man(a1-6)]Man(b1-4)GlcNAc(b1-4)GlcNAc
In short: as §1

[12] = target: Neu5Ac(a2-6)Gal(b1-4)GlcNAc(b1-2)Man(a1-3)[GlcNAc(b1-4)][Neu5Ac(a2-6)Gal(b1-4)GlcNAc(b1-2)Man(a1-6)]Man(b1-4)GlcNAc(b1-4)GlcNAc
In short: as §1

[13] = target: Neu5Ac(a2-6)Gal(b1-4)GlcNAc(b1-2)Man(a1-3)[Man(a1-6)]Man(b1-4)GlcNAc(b1-4)GlcNAc
In short: as §1

[14] = target: Neu5Ac(a2-6)Gal(b1-4)GlcNAc(b1-2)Man(a1-3)[Neu5Ac(a2-3)Gal(b1-4)GlcNAc(b1-2)Man(a1-6)]Man(b1-4)GlcNAc(b1-4)GlcNAc
In short: as §1

[15] = target: Neu5Ac(a2-6)Gal(b1-4)GlcNAc(b1-2)Man(a1-3)[Neu5Ac(a2-6)Gal(b1-4)GlcNAc(b1-2)Man(a1-6)]Man(b1-4)GlcNAc(b1-4)GlcNAc
In short: as §1

[16] = target: Neu5Ac(a2-6)Gal(b1-4)GlcNAc(b1-2)Man(a1-3)[Neu5Ac(a2-6)Gal(b1-4)GlcNAc(b1-2)Man(a1-6)]Man(b1-4)GlcNAc(b1-4)[Fuc(a1-6)]GlcNAc
In short: as §1

[17] = target: Neu5Ac(a2-6)Gal(b1-4)GlcNAc(b1-2)Man(a1-6)Man(b1-4)GlcNAc(b1-4)GlcNAc
In short: as §1

[18] = target: Neu5Ac(a2-6)Gal(b1-4)GlcNAc(b1-2)Man(a1-6)[Gal(b1-4)GlcNAc(b1-2)Man(a1-3)]Man(b1-4)GlcNAc(b1-4)GlcNAc
In short: as §1

[19] = target: Neu5Ac(a2-6)Gal(b1-4)GlcNAc(b1-2)Man(a1-6)[GlcNAc(b1-2)Man(a1-3)]Man(b1-4)GlcNAc(b1-4)GlcNAc
In short: as §1

[20] = target: Neu5Ac(a2-6)Gal(b1-4)GlcNAc(b1-2)Man(a1-6)[Man(a1-3)]Man(b1-4)GlcNAc(b1-4)GlcNAc
In short: as §1

[21] = target: Neu5Ac(a2-6)Gal(b1-4)GlcNAc(b1-2)[Neu5Ac(a2-6)Gal(b1-4)GlcNAc(b1-4)]Man(a1-3)[GlcNAc(b1-4)][Neu5Ac(a2-6)Gal(b1-4)GlcNAc(b1-2)[Neu5Ac(a2-6)Gal(b1-4)GlcNAc(b1-6)]Man(a1-6)]Man(b1-4)GlcNAc(b1-4)GlcNAc
In short: as §1

[22] = target: Neu5Ac(a2-6)Gal(b1-4)GlcNAc(b1-2)[Neu5Ac(a2-6)Gal(b1-4)GlcNAc(b1-4)]Man(a1-3)[GlcNAc(b1-4)][Neu5Ac(a2-6)Gal(b1-4)GlcNAc(b1-4)Man(a1-6)]Man(b1-4)GlcNAc(b1-4)GlcNAc
In short: as §1

[23] = target: Neu5Ac(a2-6)Gal(b1-4)GlcNAc(b1-2)[Neu5Ac(a2-6)Gal(b1-4)GlcNAc(b1-6)]Man(a1-6)[Neu5Ac(a2-6)Gal(b1-4)GlcNAc(b1-2)Man(a1-3)][GlcNAc(b1-4)]Man(b1-4)GlcNAc(b1-4)GlcNAc
In short: as §1

[24] = target: Neu5Ac(a2-6)Gal(b1-4)GlcNAc(b1-3)Gal(b1-3)GlcNAc
In short: as §1

[25] = target: Neu5Ac(a2-6)Gal(b1-4)GlcNAc(b1-3)Gal(b1-4)GlcNAc
In short: as §1

[26] = target: Neu5Ac(a2-6)Gal(b1-4)GlcNAc(b1-3)Gal(b1-4)GlcNAc(b1-2)Man(a1-3)[Neu5Ac(a2-6)Gal(b1-4)GlcNAc(b1-3)Gal(b1-4)GlcNAc(b1-2)Man(a1-6)]GalNAc
In short: as §1

[27] = target: Neu5Ac(a2-6)Gal(b1-4)GlcNAc(b1-3)Gal(b1-4)GlcNAc(b1-3)Gal(b1-4)GlcNAc
In short: as §1

[28] = target: Neu5Ac(a2-6)Gal(b1-4)GlcNAc(b1-3)Gal(b1-4)GlcNAc(b1-3)Gal(b1-4)GlcNAc(b1-2)Man(a1-3)[Neu5Ac(a2-6)Gal(b1-4)GlcNAc(b1-3)Gal(b1-4)GlcNAc(b1-3)Gal(b1-4)GlcNAc(b1-2)Man(a1-6)]GalNAc
In short: as §1

[29] = target: Neu5Ac(a2-6)Gal(b1-4)GlcNAc(b1-3)Gal(b1-4)GlcNAc(b1-3)GalNAc
In short: as §1

[30] = target: Neu5Ac(a2-6)Gal(b1-4)GlcNAc(b1-3)Gal(b1-4)GlcNAc(b1-3)[Neu5Ac(a2-6)Gal(b1-4)GlcNAc(b1-3)Gal(b1-4)GlcNAc(b1-6)]GalNAc
In short: as §1

[31] = target: Neu5Ac(a2-6)Gal(b1-4)GlcNAc(b1-3)Gal(b1-4)GlcNAc(b1-6)[Gal(b1-3)]GalNAc
In short: as §1

[32] = target: Neu5Ac(a2-6)Gal(b1-4)GlcNAc(b1-3)Gal(b1-4)[Fuc(a1-3)]GlcNAc(b1-3)Gal(b1-4)[Fuc(a1-3)]GlcNAc
In short: as §1

[33] = target: Neu5Ac(a2-6)Gal(b1-4)GlcNAc(b1-3)GalNAc
In short: as §1

[34] = target: Neu5Ac(a2-6)Gal(b1-4)GlcNAc(b1-3)[Neu5Ac(a2-6)Gal(b1-4)GlcNAc(b1-6)]GalNAc
In short: as §1

[35] = target: Neu5Ac(a2-6)Gal(b1-4)GlcNAc(b1-6)GalNAc
In short: as §1

[36] = target: Neu5Ac(a2-6)Gal(b1-4)GlcNAc(b1-6)[Gal(b1-3)GlcNAc(b1-3)]Gal(b1-4)Glc
In short: as §1

[37] = target: Neu5Ac(a2-6)Gal(b1-4)GlcNAc(b1-6)[Gal(b1-3)]GalNAc
In short: as §1

[38] = target: Neu5Ac(a2-6)Gal(b1-4)GlcNAc6S
In short: as §1

Neu5Ac(a2-6)GalNAc = target: Neu5Ac(a2-6)GalNAc
In short: as §1

[39] = target: Neu5Ac(a2-6)GalNAc(b1-4)GlcNAc
In short: as §1

[40] = target: Neu5Ac(a2-6)GalNAc(b1-4)GlcNAc6S
In short: as §1

[41] = target: Neu5Ac(a2-6)GlcNAc(b1-4)GlcNAc
In short: as §1

B1: OGAA (protein)
chain: MVQKESQATLEERESELSSNPAASAGASLEPPAAPAPGEDNPAGAGGAAVAGAAGGARRFLCGVVEGFYGRPWVMEQRKELFRRLQKWELNTYLYAPKDDYKHRMFWREMYSVEEAEQLMTLISAAREYEIEFIYAISPGLDITFSNPKEVSTLKRKLDQVSQFGCRSFALLFADIDHNMCAADKEVFSSFAHAQVSITNEIYQYLGEPETFLFCPTEYCGTFCYPNVSQSPYLRTVGEKLLPGIEVLWTGPKVVSKEIPVESIEEVSKIIKRAPVIWDNIHANDYDQKRLFLGPYKGRSTELIPRLKGVLTNPNCEFEANYVAIHTLATWYKSNMNGVRKDVVMTDSEDSTVSIQIKLENEGSDEDIETDVLYSPQMALKLALTEWLQEFGVPHQY
Neu5Ac(a2-3)GalNAc
  glycan array binding signal (z-score): -0.113
[1]
  glycan array binding signal (z-score): -0.098
[2]
  glycan array binding signal (z-score): -0.078
[3]
  glycan array binding signal (z-score): -0.106
[4]
  glycan array binding signal (z-score): -0.118
[5]
  glycan array binding signal (z-score): -0.129
Neu5Ac(a2-6)Gal
  glycan array binding signal (z-score): -0.077
[6]
  glycan array binding signal (z-score): -0.122
Neu5Ac(a2-6)Gal(b1-4)Glc
  glycan array binding signal (z-score): -0.12
[7]
  glycan array binding signal (z-score): -0.073
[8]
  glycan array binding signal (z-score): -0.038
[9]
  glycan array binding signal (z-score): -0.135
[10]
  glycan array binding signal (z-score): -0.073
[11]
  glycan array binding signal (z-score): -0.019
[12]
  glycan array binding signal (z-score): -0.117
[13]
  glycan array binding signal (z-score): -0.039
[14]
  glycan array binding signal (z-score): -0.104
[15]
  glycan array binding signal (z-score): -0.079
[16]
  glycan array binding signal (z-score): -0.088
[17]
  glycan array binding signal (z-score): -0.079
[18]
  glycan array binding signal (z-score): -0.059
[19]
  glycan array binding signal (z-score): -0.092
[20]
  glycan array binding signal (z-score): -0.097
[21]
  glycan array binding signal (z-score): -0.006
[22]
  glycan array binding signal (z-score): -0.01
[23]
  glycan array binding signal (z-score): -0.01
[24]
  glycan array binding signal (z-score): -0.112
[25]
  glycan array binding signal (z-score): -0.084
[26]
  glycan array binding signal (z-score): -0.081
[27]
  glycan array binding signal (z-score): -0.04
[28]
  glycan array binding signal (z-score): -0.053
[29]
  glycan array binding signal (z-score): -0.094
[30]
  glycan array binding signal (z-score): -0.066
[31]
  glycan array binding signal (z-score): -0.107
[32]
  glycan array binding signal (z-score): -0.066
[33]
  glycan array binding signal (z-score): -0.036
[34]
  glycan array binding signal (z-score): -0.081
[35]
  glycan array binding signal (z-score): -0.101
[36]
  glycan array binding signal (z-score): -0.079
[37]
  glycan array binding signal (z-score): -0.125
[38]
  glycan array binding signal (z-score): -0.005
Neu5Ac(a2-6)GalNAc
  glycan array binding signal (z-score): -0.147
[39]
  glycan array binding signal (z-score): -0.074
[40]
  glycan array binding signal (z-score): -0.012
[41]
  glycan array binding signal (z-score): -0.12
